Among the data in the supplement of paper PMC11741623 are yeast fitness gain values, retold here.

To fix the notation:
B1: TRDV2, A0JD36 (protein)
chain: MQRISSLIHLSLFWAGVMSAIELVPEHQTVPVSIGVPATLRCSMKGEAIGNYYINWYRKTQGNTMTFIYREKDIYGPGFKDNFQGDIDIAKNLAVLKILAPSERDEGSYYCACDT
B2: SOHLH1, Q5JUK2 (protein)
chain: MASRCSEPYPEVSRIPTVRGCNGSLSGALSCCEDSARGSGPPKAPTVAEGPSSCLRRNVISERERRKRMSLSCERLRALLPQFDGRREDMASVLEMSVQFLRLASALGPSQEQHAILASSKEMWHSLQEDVLQLTLSSQIQAGVPDPGTGASSGTRTPDVKAFLESPWSLDPASASPEPVPHILASSRQWDPASCTSLGTDKCEALLGLCQVRGGLPPFSEPSSLVPWPPGRSLPKAVRPPLSWPPFSQQQTLPVMSGEALGWLGQAGPLAMGAAPLGEPAKEDPMLAQEAGSALGSDVDDGTSFLLTAGPSSWPGEWGPGFRAGPPA
B3: MSC, O60682 (protein)
chain: MSTGSVSDPEEMELRGLQREYPVPASKRPPLRGVERSYASPSDNSSAEEEDPDGEEERCALGTAGSAEGCKRKRPRVAGGGGAGGSAGGGGKKPLPAKGSAAECKQSQRNAANARERARMRVLSKAFSRLKTSLPWVPPDTKLSKLDTLRLASSYIAHLRQLLQEDRYENGYVHPVNLTWPFVVSGRPDSDTKEVSAANRLCGTTA
B4: SLC35C1, Q96A29 (protein)
chain: MNRAPLKRSRILHMALTGASDPSAEAEANGEKPFLLRALQIALVVSLYWVTSISMVFLNKYLLDSPSLRLDTPIFVTFYQCLVTTLLCKGLSALAACCPGAVDFPSLRLDLRVARSVLPLSVVFIGMITFNNLCLKYVGVAFYNVGRSLTTVFNVLLSYLLLKQTTSFYALLTCGIIIGGFWLGVDQEGAEGTLSWLGTVFGVLASLCVSLNAIYTTKVLPAVDGSIWRLTFYNNVNACILFLPLLLLLGELQALRDFAQLGSAHFWGMMTLGGLFGFAIGYVTGLQIKFTSPLTHNVSGTAKACAQTVLAVLYYEETKSFLWWTSNMMVLGGSSAYTWVRGWEMKKTPEEPSPKDSEKSAMGV
B5: MPP1, Q00013 (protein)
chain: MTLKASEGESGGSMHTALSDLYLEHLLQKRSRPEAVSHPLNTVTEDMYTNGSPAPGSPAQVKGQEVRKVRLIQFEKVTEEPMGITLKLNEKQSCTVARILHGGMIHRQGSLHVGDEILEINGTNVTNHSVDQLQKAMKETKGMISLKVIPNQQSRLPALQMFMRAQFDYDPKKDNLIPCKEAGLKFATGDIIQIINKDDSNWWQGRVEGSSKESAGLIPSPELQEWRVASMAQSAPSEAPSCSPFGKKKKYKDKYLAKHSSIFDQLDVVSYEEVVRLPAFKRKTLVLIGASGVGRSHIKNALLSQNPEKFVYPVPYTTRPPRKSEEDGKEYHFISTEEMTRNISANEFLEFGSYQGNMFGTKFETVHQIHKQNKIAILDIEPQTLKIVRTAELSPFIVFIAPTDQGTQTEALQQLQKDSEAIRSQYAHYFDLSLVNNGVDETLKKLQEAFDQACSSPQWVPVSWVY
B6: EID2B, Q96D98 (protein)
chain: MAEPTGLLEMSELPGDSSVPQVGTASGVSDVLRGAVGGGVRVQEAREGPVAEAARSMARMPGPVPGPIPSSVPGLASAPDPHQQLAFLEINRQLLFREYLDGSSMIPVRLLRDFEERRRLFVEGCKAREAAFDADPPQMDFAAVAFTVALTASEALSPLAD

The list shows a part of the results. Interaction screen of human proteins with wild-type SARS-CoV-2 proteins by split-DHFR complementation in yeast, 1 µg/mL methotrexate. Value = fitness of the pair (three or more lineages) minus that of the viral protein without a human partner, on a scale set by negative (0) and fused positive (1) controls, mean of up to three cultures; higher = more likely to interact. Active = false discovery rate below 0.05 (one-sided t-test) in at least one culture. Nearly all pairs are not hits, and differences among them are mostly noise (correlation between cultures about 0.3); most hits were seen in one culture only. Human sequences are the Swiss-Prot entries looked up by gene name; the clone may be another isoform. NSP2 values were corrected by the authors for a growth advantage. Listed are human proteins with a hit and a random twelfth of the others.

The target of one assay is SARS-CoV-2 NSP1. In words: yeast fitness gain over the viral ORF with no human partner (scaled fitness); higher = more likely to interact. Here is the method: (§1)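 Split mouse DHFR complementation in pooled diploid yeast: human ORFeome clones carry one fragment and viral ORFs the other; barcoded lineages compete in 1 µg/mL methotrexate and fitness is read by barcode sequencing in up to three cultures.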
With B1, the yeast fitness gain is inactive: 0.197.
Same read-out and setting: under B3 stands inactive: 0.0589; under B4, inactive: 0.00791.
The same measure, in the same setting: the value for B5 was inactive: 0.00702.

The target in the next assay is SARS-CoV-2 NSP10. The assay is described as above. Here is the method: as §1
On to B1, for which the yeast fitness gain is inactive: -0.0488.
Same read-out and setting: under B2 stands inactive: 0.0619.
On the same count and under the same terms, the value for B6 was inactive: 0.108.

In a further assay the target is SARS-CoV-2 NSP12. The description is as above. Here is the method: as §1
Consider B1, for which the yeast fitness gain is inactive: 0.0668.
Regarding B2, the yeast fitness gain is inactive: -0.156.
Consider B3, for which the yeast fitness gain was inactive: -0.246.
Still for that read-out and setting: under B5 stands inactive: -0.0868.

In another assay the target is SARS-CoV-2 NSP13. The description is as above. Here is the method:
as §1
Consider B1, for which the yeast fitness gain was inactive: -0.0382.
With B3, the yeast fitness gain is inactive: -0.0296.
For B4, the yeast fitness gain was inactive: -0.103.
In the case of B5, the yeast fitness gain was inactive: 0.0278.
For B6, the yeast fitness gain is inactive: 0.124.

The next assay addresses SARS-CoV-2 NSP2. The description is as above. Here is the method:
as §1
As to B1, the yeast fitness gain was inactive: -0.141.
On the same count and under the same terms, the value for B3 was inactive: -0.0143.
Same read-out and setting: the value for B4 was inactive: -0.187; that for B5 was inactive: -0.0953.

Another assay deals with SARS-CoV-2 NSP5. The assay is described as above. Here is the method:
as §1
Turning to B1, the yeast fitness gain is inactive: 0.0505.
As to B3, the yeast fitness gain was inactive: -0.0403.
The same measure, in the same setting: the value for B5 was inactive: -0.0236.

The target in a further assay is SARS-CoV-2 NSP9. The assay is described as above. The procedure:
as §1
As for B1, the yeast fitness gain was inactive: -0.0175.

For another assay, the target named is SARS-CoV-2 ORF3B. The assay is described as above. Here is the method:
as §1
Take B1: the yeast fitness gain is inactive: -0.144.
B3: the yeast fitness gain was inactive: 0.0462.
Still for that read-out and setting: under B4 stands inactive: 0.0233.
In the case of B5, the yeast fitness gain is inactive: -0.066.

A further assay has as its target SARS-CoV-2 ORF6. The description is as above. The procedure: as §1
As for B1, the yeast fitness gain was inactive: 0.0397.
As for B3, the yeast fitness gain was inactive: 0.0576.
On the same count and under the same terms, under B4 stands inactive: 0.0231; under B5, inactive: 0.0394; under B6, inactive: 0.0725.

For the next assay, the target named is SARS-CoV-2 ORF7B. Described as above. Here is the method: as §1
As to B1, the yeast fitness gain is inactive: 0.0103.
Same read-out and setting: the value for B3 was inactive: 0.0138; that for B4 was inactive: 0.0259; that for B5 was inactive: 0.0253.

Another assay addresses SARS-CoV-2 ORF9B. Described as above. Here is the method: as §1
In the case of B1, the yeast fitness gain is inactive: 0.0787.
As to B3, the yeast fitness gain was inactive: -0.227.
Consider B4, for which the yeast fitness gain is inactive: -0.0983.
On the same count and under the same terms, the value for B5 was inactive: -0.113; that for B6 was inactive: 0.0317.

The next assay deals with SARS-CoV-2 ORF9Bwu (the 73-codon ORF). The assay is described as above. Here is the method:
as §1
For B1, the yeast fitness gain is inactive: -0.0512.
For B4, the yeast fitness gain was inactive: -0.0641.

The target in the next assay is SARS-CoV-2 S. The assay is described as above. Here is the method:
as §1
As for B1, the yeast fitness gain is inactive: -0.0212.
The same measure, in the same setting: under B3 stands inactive: -0.0267.
On the same count and under the same terms, the value for B4 was inactive: -0.209; that for B5 was inactive: -0.113.

A further assay concerns the target SARS-CoV-2 ORF10. Described as above. Here is the method:
as §1
For B3, the yeast fitness gain is inactive: -0.374.
Still for that read-out and setting: the value for B5 was inactive: 0.0714.

The target of another assay is SARS-CoV-2 ORF3A. The assay is described as above. The procedure: as §1
As to B3, the yeast fitness gain was inactive: -0.408.

A further assay has as its target SARS-CoV-2 ORF8. The assay is described as above. The procedure: as §1
As to B3, the yeast fitness gain was inactive: -0.000821.
The same measure, in the same setting: under B4 stands inactive: -0.0356; under B5, inactive: 0.00458.

The target in a further assay is SARS-CoV-2 NSP15. The description is as above. The procedure: as §1
On to B5, for which the yeast fitness gain was inactive: -0.2.

Another assay addresses SARS-CoV-2 NSP6. The description is as above. The procedure: as §1
For B5, the yeast fitness gain is inactive: -0.0477.
As to B6, the yeast fitness gain is inactive: -0.0525.

The next assay addresses SARS-CoV-2 NSP8. The assay is described as above. The procedure: as §1
For B5, the yeast fitness gain is inactive: 0.0789.
